Measured values as given in the BET-seq Pho4 binding data (Le et al. 2018).
This is one part of the list. The energies were worked out here from pooled read counts, against the library average; single values are noisy.

molecular target: T1, Pho4 (S. cerevisiae) (UniProt P07270); assay: relative binding free energy (BET-seq); higher = weaker binding; details: reference: library average
T1 sequence: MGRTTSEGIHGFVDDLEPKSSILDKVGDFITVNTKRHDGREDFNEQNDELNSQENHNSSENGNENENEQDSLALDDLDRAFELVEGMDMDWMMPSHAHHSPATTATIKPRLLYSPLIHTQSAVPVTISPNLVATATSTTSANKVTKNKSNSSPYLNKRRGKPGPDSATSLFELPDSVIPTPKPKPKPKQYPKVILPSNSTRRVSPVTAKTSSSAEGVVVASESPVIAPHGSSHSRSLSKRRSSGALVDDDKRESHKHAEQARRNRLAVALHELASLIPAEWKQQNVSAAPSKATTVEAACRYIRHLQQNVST

| Sequence | relative binding free energy |
| --- | --- |
| CTCGTCACGTGTTGTT | 0.06 kcal/mol |
| AGGTTCACGTGGGTCT | 0.15 kcal/mol |
| AGAGTCACGTGCGGTG | 0.08 kcal/mol |
| TTCGGCACGTGATTTT | 0.01 kcal/mol |
| AACGTCACGTGGGTAT | 0.07 kcal/mol |
| CTTATCACGTGGTTAT | 0.1 kcal/mol |
| GTAACCACGTGTTGTG | -0.07 kcal/mol |
| AGCTGCACGTGTGTTT | -0.03 kcal/mol |
| TTTGGCACGTGCGATA | -0.03 kcal/mol |
| GAGAACACGTGGAGGT | 0.28 kcal/mol |
| CGGGACACGTGTGGGG | 0.12 kcal/mol |
| TTTATCACGTGATATC | 0.39 kcal/mol |
| TGGCGCACGTGTATAT | -0.13 kcal/mol |
| ACATGCACGTGGTAGG | -0.11 kcal/mol |
| TATCTCACGTGTTGAT | 0.23 kcal/mol |
| GGTCTCACGTGCGGGT | 0.21 kcal/mol |
| GTGGACACGTGGAGCT | -0.07 kcal/mol |
| GTGTTCACGTGAGGCG | 0.49 kcal/mol |
| GTGGTCACGTGTCTTA | 0.02 kcal/mol |
| TGAAGCACGTGGTAGA | 0 kcal/mol |
| AGTCTCACGTGTATAT | 0.2 kcal/mol |
| GTGGGCACGTGATCGG | 0.07 kcal/mol |
| ATATTCACGTGTAAGA | 0.28 kcal/mol |

| Sequence | relative binding free energy |
| --- | --- |
| GGTGCCACGTGGTCAT | -0.08 kcal/mol |
| ATAAACACGTGGAGGG | -0.01 kcal/mol |
| ATAGGCACGTGGTTCA | -0.28 kcal/mol |
| GTCGGCACGTGATGCG | -0.11 kcal/mol |
| AGAGACACGTGGTGGC | -0.04 kcal/mol |
| TTTTACACGTGGATGT | 0.11 kcal/mol |
| AATTTCACGTGGGTCA | 0.23 kcal/mol |
| GTACTCACGTGTCGGT | 0.24 kcal/mol |
| ATAATCACGTGGAGTT | 0.16 kcal/mol |
| GTGATCACGTGGAGTT | 0.09 kcal/mol |
| TGTAACACGTGACTGT | 0.21 kcal/mol |
| ATCGTCACGTGTTAAA | 0.22 kcal/mol |
| CGGGGCACGTGAGGGT | 0.12 kcal/mol |
| TTATTCACGTGCGGAT | 0.29 kcal/mol |
| GTTACCACGTGTTGTA | -0.08 kcal/mol |
| GTGTACACGTGAAGGC | 0.3 kcal/mol |
| CGTGTCACGTGGGAGG | 0 kcal/mol |
| GATAGCACGTGGGATT | -0.15 kcal/mol |
| GTATGCACGTGGTGCC | -0.04 kcal/mol |
| CTAATCACGTGGGAGG | 0.1 kcal/mol |
| GAAAGCACGTGTGTAT | 0.04 kcal/mol |
| TATATCACGTGAATTG | 0.2 kcal/mol |
| ATTGTCACGTGGTAAG | 0.1 kcal/mol |

| Sequence | relative binding free energy |
| --- | --- |
| TTTTACACGTGAAGTC | 0.35 kcal/mol |
| GAATGCACGTGTAAGG | 0.14 kcal/mol |
| GTGTTCACGTGTCGTC | 0.29 kcal/mol |
| CAGGGCACGTGCTGGG | -0.12 kcal/mol |
| GAGGGCACGTGAAGTT | 0.22 kcal/mol |
| GAAAACACGTGTTGTG | -0.07 kcal/mol |
| TGGTACACGTGGAATG | 0.2 kcal/mol |
| GTTCACACGTGTTGGG | 0.2 kcal/mol |
| AGTTGCACGTGAAGTT | 0.27 kcal/mol |
| TATTACACGTGTAGGA | 0.14 kcal/mol |
| GTGGCCACGTGTTGGC | -0.02 kcal/mol |
| CAGTTCACGTGTAGTG | 0.2 kcal/mol |
| TGGATCACGTGGGCGG | 0.05 kcal/mol |
| GATGGCACGTGTATGA | 0.01 kcal/mol |
| GTGGGCACGTGGAAAG | 0.23 kcal/mol |
| ATTTACACGTGTACGA | 0.3 kcal/mol |
| TTATACACGTGTTAGG | 0.07 kcal/mol |
| ATTATCACGTGGTCGT | -0.01 kcal/mol |
| TAAGCCACGTGTGGGC | 0.12 kcal/mol |
| GTTGACACGTGCTGTT | 0.03 kcal/mol |
| TGTTGCACGTGGCATA | 0.01 kcal/mol |
| ATTTACACGTGATTAG | 0.12 kcal/mol |
| ATTCGCACGTGTGATG | 0.11 kcal/mol |

| Sequence | relative binding free energy |
| --- | --- |
| TTTTACACGTGGCGGA | 0.04 kcal/mol |
| CGTTGCACGTGAGAGA | 0.41 kcal/mol |
| AGGTACACGTGAGATG | 0.21 kcal/mol |
| TTGTGCACGTGCCAGA | 0.09 kcal/mol |
| GTTTGCACGTGGAAAG | 0.14 kcal/mol |
| ATTTGCACGTGTTACG | 0.1 kcal/mol |
| AGGACCACGTGTTATG | 0.05 kcal/mol |
| TTTTGCACGTGGGAAC | -0.16 kcal/mol |
| GTATGCACGTGGGGAG | -0.07 kcal/mol |
| GGGCTCACGTGTGCGT | 0.13 kcal/mol |
| GTGTTCACGTGACATG | 0.21 kcal/mol |
| ACCTGCACGTGGTTTG | -0.06 kcal/mol |
| CGTTGCACGTGTGCTT | 0.03 kcal/mol |
| AGGGGCACGTGGGATA | -0.22 kcal/mol |
| CTAGTCACGTGGGAGG | -0.08 kcal/mol |
| TTGTTCACGTGTAATT | 0.42 kcal/mol |
| CTTCTCACGTGATGGT | 0.25 kcal/mol |
| GCGAACACGTGGGTTG | -0.05 kcal/mol |
| CGTATCACGTGTTGAG | 0.08 kcal/mol |
| GATTTCACGTGGTGAC | 0.4 kcal/mol |
| CGGCTCACGTGGGGGA | 0.05 kcal/mol |
| ATTATCACGTGATAAG | 0.31 kcal/mol |
| CGTGCCACGTGATGGA | 0.28 kcal/mol |

| Sequence | relative binding free energy |
| --- | --- |
| AGGGGCACGTGGATTT | -0.03 kcal/mol |
| GGGCTCACGTGGGATA | 0.43 kcal/mol |
| TGCGTCACGTGAGGAG | 0.28 kcal/mol |
| ATTAGCACGTGTTTAG | -0.02 kcal/mol |
| GTATACACGTGTTATG | 0.1 kcal/mol |
| TGTGGCACGTGGCCGG | -0.19 kcal/mol |
| TTCTCCACGTGTGTGG | 0.04 kcal/mol |
| GTAGGCACGTGATAGG | -0.08 kcal/mol |
| GAAGGCACGTGGTTGC | -0.06 kcal/mol |
| AGAATCACGTGGTAGA | 0.25 kcal/mol |
| GTGCGCACGTGGCTTG | -0.16 kcal/mol |
| TTAGTCACGTGGGAAT | -0.04 kcal/mol |
| TAATACACGTGTTTGA | -0.01 kcal/mol |
| TTCGGCACGTGGGAAT | -0.17 kcal/mol |
| GTGTGCACGTGAGCGC | 0.18 kcal/mol |
| TTGAGCACGTGAGTTC | 0.09 kcal/mol |
| GGATGCACGTGGGCTG | -0.23 kcal/mol |
| TATAGCACGTGTCGGG | -0.1 kcal/mol |
| GGCGGCACGTGGCTTG | -0.16 kcal/mol |
| TGGCGCACGTGCCGGT | -0.15 kcal/mol |
| TAGAACACGTGGTGGA | 0.03 kcal/mol |
| ATGGTCACGTGGAGAA | 0.17 kcal/mol |
| TCTTTCACGTGTAGTG | 0.21 kcal/mol |
